{"source": "the supplement of paper PMC8728848", "binders": {"B1": {"name": "Nictaba (Nicotiana tabacum), Q94EW1 (protein)", "chain": "MQGQWIAARDLSITWVDNPQYWTWKTVDPNIEVAELRRVAWLDIYGKIETKNLIRKTSYAVYLVFKLTDNPRELERATASLRFVNEVAEGAGIEGTTVFISKKKKLPGELGRFPHLRSDGWLEIKLGEFFNNLGEDGEVEMRLMEINDKTWKSGIIVKGFDIRPN"}}, "test_in_all_cases": "glycan array binding signal (z-score within array); higher = stronger binding", "conditions_in_all_cases": "glycan notation: IUPAC condensed, linker removed", "key": {"Gal4S(b1-4)GlcNAc": {"target": "Gal4S(b1-4)GlcNAc", "method_in_brief": "(§1)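 The binding signal is a Z-score computed within each array. Data were drawn from 3228 arrays in the Consortium for Functional Glycomics database, restricted to those with a known protein sequence. Scores were averaged over arrays of the same protein sequence at different concentrations or buffers, and over linkers, and negative values can be taken as non-binding.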"}, "Gal4S6S(b1-4)GlcNAc": {"target": "Gal4S6S(b1-4)GlcNAc", "method_in_brief": "as §1"}, "Gal6P(b1-4)GlcNAc": {"target": "Gal6P(b1-4)GlcNAc", "method_in_brief": "as §1"}, "Gal6S(b1-3)GlcNAc": {"target": "Gal6S(b1-3)GlcNAc", "method_in_brief": "as §1"}, "Gal6S(b1-3)GlcNAc6S": {"target": "Gal6S(b1-3)GlcNAc6S", "method_in_brief": "as §1"}, "Gal6S(b1-4)Glc": {"target": "Gal6S(b1-4)Glc", "method_in_brief": "as §1"}, "Gal6S(b1-4)Glc6S": {"target": "Gal6S(b1-4)Glc6S", "method_in_brief": "as §1"}, "Gal6S(b1-4)GlcNAc": {"target": "Gal6S(b1-4)GlcNAc", "method_in_brief": "as §1"}, "Gal6S(b1-4)GlcNAc6S": {"target": "Gal6S(b1-4)GlcNAc6S", "method_in_brief": "as §1"}, "GalNAc(a1-3)Gal": {"target": "GalNAc(a1-3)Gal", "method_in_brief": "as §1"}, "GalNAc(a1-3)GalNAc": {"target": "GalNAc(a1-3)GalNAc", "method_in_brief": "as §1"}, "[1]": {"target": "GalNAc(a1-3)GalNAc(a1-3)Gal(a1-4)Gal(b1-4)GlcNAc", "method_in_brief": "as §1"}, "[2]": {"target": "GalNAc(a1-3)GalNAc(b1-3)Gal(a1-4)Gal(b1-4)Glc", "method_in_brief": "as §1"}, "[3]": {"target": "GalNAc(a1-3)GalNAc(b1-3)Gal(a1-4)Gal(b1-4)GlcNAc", "method_in_brief": "as §1"}, "GalNAc(b1-3)Gal": {"target": "GalNAc(b1-3)Gal", "method_in_brief": "as §1"}, "[4]": {"target": "GalNAc(b1-3)Gal(a1-4)Gal(b1-4)GlcNAc", "method_in_brief": "as §1"}, "[5]": {"target": "GalNAc(b1-3)Gal(a1-4)Gal(b1-4)GlcNAc(b1-3)Gal(b1-4)Glc", "method_in_brief": "as §1"}, "[6]": {"target": "GalNAc(b1-3)Gal(a1-6)Gal(b1-4)Glc", "method_in_brief": "as §1"}, "GalNAc(b1-3)GalNAc": {"target": "GalNAc(b1-3)GalNAc", "method_in_brief": "as §1"}, "GalNAc(b1-3)GlcNAc": {"target": "GalNAc(b1-3)GlcNAc", "method_in_brief": "as §1"}, "GalNAc(b1-4)Gal(b1-4)Glc": {"target": "GalNAc(b1-4)Gal(b1-4)Glc", "method_in_brief": "as §1"}, "GalNAc(b1-4)GlcNAc": {"target": "GalNAc(b1-4)GlcNAc", "method_in_brief": "as §1"}, "[7]": {"target": "GalNAc(b1-4)GlcNAc(b1-2)Man", "method_in_brief": "as §1"}, "[8]": {"target": "GalNAc(b1-4)GlcNAc(b1-2)Man(a1-3)[GalNAc(b1-4)GlcNAc(b1-2)Man(a1-6)]Man(b1-4)GlcNAc(b1-4)GlcNAc", "method_in_brief": "as §1"}, "[9]": {"target": "GalNAc(b1-4)GlcNAc(b1-3)GalNAc(b1-4)GlcNAc", "method_in_brief": "as §1"}, "GalNAc(b1-4)GlcNAc6S": {"target": "GalNAc(b1-4)GlcNAc6S", "method_in_brief": "as §1"}, "GalNAc(b1-6)GalNAc": {"target": "GalNAc(b1-6)GalNAc", "method_in_brief": "as §1"}, "GalNAc3S(b1-4)GlcNAc": {"target": "GalNAc3S(b1-4)GlcNAc", "method_in_brief": "as §1"}, "GalNAc3S(b1-4)GlcNAc3S": {"target": "GalNAc3S(b1-4)GlcNAc3S", "method_in_brief": "as §1"}, "[10]": {"target": "GalNAc3S(b1-4)[Fuc(a1-3)]GlcNAc", "method_in_brief": "as §1"}, "GalNAc4S6S(b1-4)GlcNAc": {"target": "GalNAc4S6S(b1-4)GlcNAc", "method_in_brief": "as §1"}, "GalNAc6S(b1-4)GlcNAc": {"target": "GalNAc6S(b1-4)GlcNAc", "method_in_brief": "as §1"}, "Glc(a1-4)Glc": {"target": "Glc(a1-4)Glc", "method_in_brief": "as §1"}, "[11]": {"target": "Glc(a1-4)Glc(a1-4)Glc(a1-4)Glc", "method_in_brief": "as §1"}, "Glc(a1-6)Glc(a1-6)Glc": {"target": "Glc(a1-6)Glc(a1-6)Glc", "method_in_brief": "as §1"}, "[12]": {"target": "Glc(a1-6)Glc(a1-6)Glc(a1-6)Glc", "method_in_brief": "as §1"}, "Glc(b1-4)Glc": {"target": "Glc(b1-4)Glc", "method_in_brief": "as §1"}, "Glc(b1-6)Glc": {"target": "Glc(b1-6)Glc", "method_in_brief": "as §1"}, "GlcA(b1-3)Gal": {"target": "GlcA(b1-3)Gal", "method_in_brief": "as §1"}, "GlcA(b1-3)GlcNAc": {"target": "GlcA(b1-3)GlcNAc", "method_in_brief": "as §1"}, "GlcA(b1-6)Gal": {"target": "GlcA(b1-6)Gal", "method_in_brief": "as §1"}, "[13]": {"target": "GlcA3S(b1-3)Gal(b1-4)GlcNAc(b1-2)Man", "method_in_brief": "as §1"}, "[14]": {"target": "GlcA3S(b1-3)Gal(b1-4)GlcNAc(b1-3)Gal(b1-4)Glc", "method_in_brief": "as §1"}, "[15]": {"target": "GlcNAc(a1-3)Gal(b1-4)GlcNAc", "method_in_brief": "as §1"}, "[16]": {"target": "GlcNAc(a1-4)Gal(b1-3)GlcNAc", "method_in_brief": "as §1"}}, "note": "Some of the results follow."}
{"binder": "B1", "values": [{"measurement": "glycan array binding signal (z-score)", "setting": "Gal4S(b1-4)GlcNAc", "value": -0.132}, {"measurement": "glycan array binding signal (z-score)", "setting": "Gal4S6S(b1-4)GlcNAc", "value": -0.303}, {"measurement": "glycan array binding signal (z-score)", "setting": "Gal6P(b1-4)GlcNAc", "value": -0.384}, {"measurement": "glycan array binding signal (z-score)", "setting": "Gal6S(b1-3)GlcNAc", "value": -0.322}, {"measurement": "glycan array binding signal (z-score)", "setting": "Gal6S(b1-3)GlcNAc6S", "value": -0.248}, {"measurement": "glycan array binding signal (z-score)", "setting": "Gal6S(b1-4)Glc", "value": -0.275}, {"measurement": "glycan array binding signal (z-score)", "setting": "Gal6S(b1-4)Glc6S", "value": -0.226}, {"measurement": "glycan array binding signal (z-score)", "setting": "Gal6S(b1-4)GlcNAc", "value": -0.214}, {"measurement": "glycan array binding signal (z-score)", "setting": "Gal6S(b1-4)GlcNAc6S", "value": -0.28}, {"measurement": "glycan array binding signal (z-score)", "setting": "GalNAc(a1-3)Gal", "value": -0.277}, {"measurement": "glycan array binding signal (z-score)", "setting": "GalNAc(a1-3)GalNAc", "value": -0.304}, {"measurement": "glycan array binding signal (z-score)", "setting": "[1]", "value": -0.188}, {"measurement": "glycan array binding signal (z-score)", "setting": "[2]", "value": -0.277}, {"measurement": "glycan array binding signal (z-score)", "setting": "[3]", "value": -0.276}, {"measurement": "glycan array binding signal (z-score)", "setting": "GalNAc(b1-3)Gal", "value": -0.308}, {"measurement": "glycan array binding signal (z-score)", "setting": "[4]", "value": -0.298}, {"measurement": "glycan array binding signal (z-score)", "setting": "[5]", "value": -0.259}, {"measurement": "glycan array binding signal (z-score)", "setting": "[6]", "value": -0.221}, {"measurement": "glycan array binding signal (z-score)", "setting": "GalNAc(b1-3)GalNAc", "value": -0.287}, {"measurement": "glycan array binding signal (z-score)", "setting": "GalNAc(b1-3)GlcNAc", "value": -0.386}, {"measurement": "glycan array binding signal (z-score)", "setting": "GalNAc(b1-4)Gal(b1-4)Glc", "value": -0.287}, {"measurement": "glycan array binding signal (z-score)", "setting": "GalNAc(b1-4)GlcNAc", "value": -0.228}, {"measurement": "glycan array binding signal (z-score)", "setting": "[7]", "value": -0.384}, {"measurement": "glycan array binding signal (z-score)", "setting": "[8]", "value": 0.175}, {"measurement": "glycan array binding signal (z-score)", "setting": "[9]", "value": -0.377}, {"measurement": "glycan array binding signal (z-score)", "setting": "GalNAc(b1-4)GlcNAc6S", "value": -0.382}, {"measurement": "glycan array binding signal (z-score)", "setting": "GalNAc(b1-6)GalNAc", "value": -0.337}, {"measurement": "glycan array binding signal (z-score)", "setting": "GalNAc3S(b1-4)GlcNAc", "value": -0.387}, {"measurement": "glycan array binding signal (z-score)", "setting": "GalNAc3S(b1-4)GlcNAc3S", "value": -0.386}, {"measurement": "glycan array binding signal (z-score)", "setting": "[10]", "value": -0.387}, {"measurement": "glycan array binding signal (z-score)", "setting": "GalNAc4S6S(b1-4)GlcNAc", "value": -0.387}, {"measurement": "glycan array binding signal (z-score)", "setting": "GalNAc6S(b1-4)GlcNAc", "value": -0.387}, {"measurement": "glycan array binding signal (z-score)", "setting": "Glc(a1-4)Glc", "value": -0.326}, {"measurement": "glycan array binding signal (z-score)", "setting": "[11]", "value": -0.316}, {"measurement": "glycan array binding signal (z-score)", "setting": "Glc(a1-6)Glc(a1-6)Glc", "value": -0.295}, {"measurement": "glycan array binding signal (z-score)", "setting": "[12]", "value": -0.355}, {"measurement": "glycan array binding signal (z-score)", "setting": "Glc(b1-4)Glc", "value": -0.295}, {"measurement": "glycan array binding signal (z-score)", "setting": "Glc(b1-6)Glc", "value": -0.294}, {"measurement": "glycan array binding signal (z-score)", "setting": "GlcA(b1-3)Gal", "value": -0.31}, {"measurement": "glycan array binding signal (z-score)", "setting": "GlcA(b1-3)GlcNAc", "value": -0.238}, {"measurement": "glycan array binding signal (z-score)", "setting": "GlcA(b1-6)Gal", "value": -0.31}, {"measurement": "glycan array binding signal (z-score)", "setting": "[13]", "value": -0.39}, {"measurement": "glycan array binding signal (z-score)", "setting": "[14]", "value": -0.387}, {"measurement": "glycan array binding signal (z-score)", "setting": "[15]", "value": -0.205}, {"measurement": "glycan array binding signal (z-score)", "setting": "[16]", "value": -0.268}]}
